Results: US4472304A, “(Amido)N-substituted bleomycins, salts thereof and process for preparation thereof” (Nippon Kayaku Kabushiki Kaisha, priority 1981, dated 1984)
The name of at least one read-out is uncertain.

Biological target: T1, bleomycin-inactivating enzyme (Rattus norvegicus, UniProt P70645)
T1 sequence (P70645 1-454): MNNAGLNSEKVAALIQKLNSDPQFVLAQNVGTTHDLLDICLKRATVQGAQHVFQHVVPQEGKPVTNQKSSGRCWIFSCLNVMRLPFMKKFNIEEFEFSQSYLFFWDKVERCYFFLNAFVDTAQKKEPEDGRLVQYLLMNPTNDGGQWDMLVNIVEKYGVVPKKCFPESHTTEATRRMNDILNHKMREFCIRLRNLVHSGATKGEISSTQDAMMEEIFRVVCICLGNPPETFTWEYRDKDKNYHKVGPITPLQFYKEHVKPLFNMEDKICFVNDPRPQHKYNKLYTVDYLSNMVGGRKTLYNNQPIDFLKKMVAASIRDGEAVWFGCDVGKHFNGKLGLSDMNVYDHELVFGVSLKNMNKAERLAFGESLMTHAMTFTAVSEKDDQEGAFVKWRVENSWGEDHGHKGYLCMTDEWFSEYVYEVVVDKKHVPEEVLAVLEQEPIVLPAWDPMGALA
Settings: rated under conditions where inactivation of bleomycin B2 is 50%; 37° C., 40 minutes; residual activity against M. smegmatis ATCC 607

| SMILES | Resistance of Cu-free compound against inactivating enzyme (degree of inactivation) |
| --- | --- |
| Cc1c(N)nc(C(CC(N)=O)NCC(N)C(=O)NC(C)C)nc1C(=O)NC(C(=O)NC(C)C(O)C(C)C(=O)NC(C(=O)NCCc1nc(-c2nc(C(=O)NCCCCNC(=N)N)cs2)cs1)C(C)O)C(OC1OC(CO)C(O)C(O)C1OC1OC(CO)C(O)C(OC(N)=O)C1O)c1cnc[nH]1 (centres unmarked) [Compound 7, 4-Guanidinobutylamino-(amido)N--[isopropyl]-BLM] | ++++ (5 to 14%) |
| Cc1c(N)nc(C(CC(N)=O)NCC(N)C(=O)NCC(F)(F)F)nc1C(=O)NC(C(=O)NC(C)C(O)C(C)C(=O)NC(C(=O)NCCc1nc(-c2nc(C(=O)NCCCCNC(=N)N)cs2)cs1)C(C)O)C(OC1OC(CO)C(O)C(O)C1OC1OC(CO)C(O)C(OC(N)=O)C1O)c1cnc[nH]1 (centres unmarked) [Compound 9, 4-Guanidinobutylamino-(amido)N--[2',2',2'-trifluoroethyl]-BLM] | ++ (25 to 34%) |
| CCCCCCCCNC(=O)C(N)CNC(CC(N)=O)c1nc(N)c(C)c(C(=O)NC(C(=O)NC(C)C(O)C(C)C(=O)NC(C(=O)NCCc2nc(-c3nc(C(=O)NCCCCNC(=N)N)cs3)cs2)C(C)O)C(OC2OC(CO)C(O)C(O)C2OC2OC(CO)C(O)C(OC(N)=O)C2O)c2cnc[nH]2)n1 (centres unmarked) [Compound 10, 4-Guanidinobutylamino-(amido)N--[octyl]-BLM] | + (35 to 44%) |
| Cc1c(N)nc(C(CC(N)=O)NCC(N)C(=O)NCCCNC(C)c2ccccc2)nc1C(=O)NC(C(=O)NC(C)C(O)C(C)C(=O)NC(C(=O)NCCc1nc(-c2nc(C(=O)NCCCCNC(=N)N)cs2)cs1)C(C)O)C(OC1OC(CO)C(O)C(O)C1OC1OC(CO)C(O)C(OC(N)=O)C1O)c1cnc[nH]1 [Compound 11, 4-Guanidinobutylamino-(amido)N--[3-((S)-1'-phenylethyl)amino-propyl]-BLM] | +++++ (less than 5%) |
| CCCCN(CCCC)CCCNC(=O)C(N)CNC(CC(N)=O)c1nc(N)c(C)c(C(=O)NC(C(=O)NC(C)C(O)C(C)C(=O)NC(C(=O)NCCc2nc(-c3nc(C(=O)NCCCCNC(=N)N)cs3)cs2)C(C)O)C(OC2OC(CO)C(O)C(O)C2OC2OC(CO)C(O)C(OC(N)=O)C2O)c2cnc[nH]2)n1 (centres unmarked) [Compound 12] | +++++ (less than 5%) |
| CCCCCCCCCCCCNC(=O)C(N)CNC(CC(N)=O)c1nc(N)c(C)c(C(=O)NC(C(=O)NC(C)C(O)C(C)C(=O)NC(C(=O)NCCc2nc(-c3nc(C(=O)NCCCCNC(=N)N)cs3)cs2)C(C)O)C(OC2OC(CO)C(O)C(O)C2OC2OC(CO)C(O)C(OC(N)=O)C2O)c2cnc[nH]2)n1 (centres unmarked) [Compound 13, 4-Guanidinobutylamino-(amido)N--[lauryl]-BLM] | ++++ (5 to 14%) |
| Cc1c(N)nc(C(CC(N)=O)NCC(N)C(=O)NCc2ccccc2)nc1C(=O)NC(C(=O)NC(C)C(O)C(C)C(=O)NC(C(=O)NCCc1nc(-c2nc(C(=O)NCCCCNC(=N)N)cs2)cs1)C(C)O)C(OC1OC(CO)C(O)C(O)C1OC1OC(CO)C(O)C(OC(N)=O)C1O)c1cnc[nH]1 (centres unmarked) [Compound 14, 4-Guanidinobutylamino-(amido)N--[benzyl]-BLM] | + (35 to 44%) |
| Cc1c(N)nc(C(CC(N)=O)NCC(N)C(=O)NC(c2ccccc2)c2ccccc2)nc1C(=O)NC(C(=O)NC(C)C(O)C(C)C(=O)NC(C(=O)NCCc1nc(-c2nc(C(=O)NCCCCNC(=N)N)cs2)cs1)C(C)O)C(OC1OC(CO)C(O)C(O)C1OC1OC(CO)C(O)C(OC(N)=O)C1O)c1cnc[nH]1 (centres unmarked) [Compound 15, 4-Guanidinobutylamino-(amido)N--[diphenylmethyl]-BLM] | +++++ (less than 5%) |
| Cc1c(N)nc(C(CC(N)=O)NCC(N)C(=O)NC(Cc2ccccc2)c2ccccc2)nc1C(=O)NC(C(=O)NC(C)C(O)C(C)C(=O)NC(C(=O)NCCc1nc(-c2nc(C(=O)NCCCCNC(=N)N)cs2)cs1)C(C)O)C(OC1OC(CO)C(O)C(O)C1OC1OC(CO)C(O)C(OC(N)=O)C1O)c1cnc[nH]1 (centres unmarked) [Compound 16, 4-Guanidinobutylamino-(amido)N--[1',2'-diphenylethyl]-BLM] | ++++ (5 to 14%) |
| Cc1c(N)nc(C(CC(N)=O)NCC(N)C(=O)Nc2ccc3ccccc3c2)nc1C(=O)NC(C(=O)NC(C)C(O)C(C)C(=O)NC(C(=O)NCCc1nc(-c2nc(C(=O)NCCCCNC(=N)N)cs2)cs1)C(C)O)C(OC1OC(CO)C(O)C(O)C1OC1OC(CO)C(O)C(OC(N)=O)C1O)c1cnc[nH]1 (stereo not drawn) [Compound 17, 4-Guanidinobutylamino-(amido)N--[β-naphthyl]-BLM] | ± (45% or more) |
| Cc1c(N)nc(C(CC(N)=O)NCC(N)C(=O)NCc2ccco2)nc1C(=O)NC(C(=O)NC(C)C(O)C(C)C(=O)NC(C(=O)NCCc1nc(-c2nc(C(=O)NCCCCNC(=N)N)cs2)cs1)C(C)O)C(OC1OC(CO)C(O)C(O)C1OC1OC(CO)C(O)C(OC(N)=O)C1O)c1cnc[nH]1 (centres unmarked) [Compound 18, 4-Guanidinobutylamino-(amido)N--[2-furylmethyl]-BLM] | ± (45% or more) |
| Cc1c(N)nc(C(CC(N)=O)NCC(N)C(=O)NCc2nccs2)nc1C(=O)NC(C(=O)NC(C)C(O)C(C)C(=O)NC(C(=O)NCCc1nc(-c2nc(C(=O)NCCCCNC(=N)N)cs2)cs1)C(C)O)C(OC1OC(CO)C(O)C(O)C1OC1OC(CO)C(O)C(OC(N)=O)C1O)c1cnc[nH]1 (centres unmarked) [Compound 20, 4-Guanidinobutylamino-(amido)N--[2-thiazolylmethyl]-BLM] | ++ (25 to 34%) |
| Cc1c(N)nc(C(CC(N)=O)NCC(N)C(=O)NC(Cc2ccccc2)c2ccccc2)nc1C(=O)NC(C(=O)NC(C)C(O)C(C)C(=O)NC(C(=O)NCCc1nc(-c2nc(C(=O)NCCCNC(C)c3ccccc3)cs2)cs1)C(C)O)C(OC1OC(CO)C(O)C(O)C1OC1OC(CO)C(O)C(OC(N)=O)C1O)c1cnc[nH]1 [Compound 30, 3-((S)-1'-phenylethylamino)propylamino-(amido)N--[1',2'-diphenyl-ethyl]-BLM] | ++++ (5 to 14%) |
| Cc1c(N)nc(C(CC(N)=O)NCC(N)C(=O)NC(Cc2ccccc2)c2ccccc2)nc1C(=O)NC(C(=O)NC(C)C(O)C(C)C(=O)NC(C(=O)NCCc1nc(-c2nc(C(=O)NCCCN(C)CCCNCc3ccc(Cl)cc3)cs2)cs1)C(C)O)C(OC1OC(CO)C(O)C(O)C1OC1OC(CO)C(O)C(OC(N)=O)C1O)c1cnc[nH]1 (centres unmarked) [Compound 41, 3-{N--methyl-N--[3-(p-chlorobenzyl)aminopropyl]amino}propyl-amino-(amido)N--[1,2-diphenylethyl]-BLM] | +++++ (less than 5%) |
